{
  "source": "paper PMC4336329",
  "about": "(PLoS ONE, 2015)",
  "note": "In all, about 310,000 compounds went through this assay and about 14,000 (4.5%) showed an effect of 50% or more. Effects have a minus sign here. Some of the results follow.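 Also: peak tail current of the secondary pulse compared with the same well before compound.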",
  "data": [
    {"biological_target": "human ether-à-go-go-related gene (hERG) potassium channel (human, UniProt Q12809)", "sequence (Q12809 whole entry, looked up)": "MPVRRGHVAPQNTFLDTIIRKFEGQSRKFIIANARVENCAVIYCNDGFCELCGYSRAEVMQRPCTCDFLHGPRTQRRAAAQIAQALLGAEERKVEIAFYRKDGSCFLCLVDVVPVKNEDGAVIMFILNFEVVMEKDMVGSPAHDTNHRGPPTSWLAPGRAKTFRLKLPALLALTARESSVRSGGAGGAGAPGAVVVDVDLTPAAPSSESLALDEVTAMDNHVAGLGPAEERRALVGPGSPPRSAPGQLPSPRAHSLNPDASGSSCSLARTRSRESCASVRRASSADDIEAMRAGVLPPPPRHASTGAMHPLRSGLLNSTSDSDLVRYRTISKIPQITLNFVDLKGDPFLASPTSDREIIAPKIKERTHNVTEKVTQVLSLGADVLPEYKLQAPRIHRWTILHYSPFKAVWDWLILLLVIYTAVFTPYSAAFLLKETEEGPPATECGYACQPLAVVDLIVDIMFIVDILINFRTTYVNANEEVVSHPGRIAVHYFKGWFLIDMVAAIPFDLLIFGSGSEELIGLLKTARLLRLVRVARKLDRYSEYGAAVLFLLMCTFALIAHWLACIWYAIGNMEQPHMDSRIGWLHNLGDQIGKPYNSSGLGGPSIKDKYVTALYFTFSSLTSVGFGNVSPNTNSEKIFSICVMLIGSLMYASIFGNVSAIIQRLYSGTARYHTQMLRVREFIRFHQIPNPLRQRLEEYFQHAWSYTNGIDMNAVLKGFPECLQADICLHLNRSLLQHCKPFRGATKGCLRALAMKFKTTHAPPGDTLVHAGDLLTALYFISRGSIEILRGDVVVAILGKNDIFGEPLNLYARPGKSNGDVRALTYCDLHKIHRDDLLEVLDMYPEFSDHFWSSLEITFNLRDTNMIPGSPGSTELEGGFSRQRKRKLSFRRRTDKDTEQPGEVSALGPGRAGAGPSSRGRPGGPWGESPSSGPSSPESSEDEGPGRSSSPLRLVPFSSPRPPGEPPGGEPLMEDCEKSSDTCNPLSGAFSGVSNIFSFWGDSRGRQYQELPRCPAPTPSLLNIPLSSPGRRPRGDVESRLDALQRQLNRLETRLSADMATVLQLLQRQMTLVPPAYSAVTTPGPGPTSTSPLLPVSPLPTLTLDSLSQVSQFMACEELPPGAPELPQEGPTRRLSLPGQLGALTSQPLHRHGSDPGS", "experiment": "primary screen, population patch clamp on CHO cells stably expressing hERG", "units": {"hERG current change (%, negative = inhibition) at 10uM": "%"}, "values": [
      {"molecule": "Cc1[nH]c2ccccc2c1C(=O)C(=O)NC1CC1", "hERG current change (%, negative = inhibition) at 10uM": 24.8},
      {"molecule": "COc1cccc(N2C(=O)/C(=C\\c3cccs3)NC2=S)c1", "hERG current change (%, negative = inhibition) at 10uM": 17.5},
      {"molecule": "COc1ccccc1NCC(O)Cn1c2ccccc2c2ccccc21", "note": "(stereo not drawn)", "hERG current change (%, negative = inhibition) at 10uM": -11.8},
      {"molecule": "Cc1ccc(-n2c(C)nc3oc4ccccc4c(=O)c3c2=O)cc1", "hERG current change (%, negative = inhibition) at 10uM": 4.99},
      {"molecule": "N#Cc1cnc(SCC(=O)NNC(=O)COc2cccc3ccccc23)nc1N", "hERG current change (%, negative = inhibition) at 10uM": 4.36},
      {"molecule": "Cc1ccc(C2=NS(=O)(=O)N(C)C(C(=O)Nc3ccc4c(c3)OCO4)=C2)cc1", "hERG current change (%, negative = inhibition) at 10uM": -2.94},
      {"molecule": "CCOC(=O)C1CCCN(S(=O)(=O)c2cc(OCC(=O)NC3CCCCC3)c(C)cc2Cl)C1", "note": "(stereo not drawn)", "hERG current change (%, negative = inhibition) at 10uM": -10.3},
      {"molecule": "Cc1cccc(CC2S/C(=N/c3cccc(C)n3)NC2=O)c1", "note": "(stereo not drawn)", "hERG current change (%, negative = inhibition) at 10uM": -2.32},
      {"molecule": "COc1ccc(OC)c(-c2csc(NC(=O)C3=COCCO3)n2)c1", "hERG current change (%, negative = inhibition) at 10uM": 4.73},
      {"molecule": "Cc1cccc(N(CC(=O)NC(C)(C)C)C(=O)CNC(=O)c2cccs2)c1", "hERG current change (%, negative = inhibition) at 10uM": -7.29},
      {"molecule": "CCCCN(C(=O)C1=COCCO1)c1c(N)n(CCCC)c(=O)[nH]c1=O", "hERG current change (%, negative = inhibition) at 10uM": 9.21},
      {"molecule": "CC(C)C(C)NC(=O)CN1C(=O)NC(C)(c2ccc3ccccc3c2)C1=O", "note": "(stereo not drawn)", "hERG current change (%, negative = inhibition) at 10uM": 10.3},
      {"molecule": "CCCCCSc1nnc(N)s1", "hERG current change (%, negative = inhibition) at 10uM": 10.7},
      {"molecule": "CCCC1=Nc2cc(C(=O)N3CCC(C(N)=O)CC3)ccc2Sc2ccccc21", "hERG current change (%, negative = inhibition) at 10uM": 4.75},
      {"molecule": "COc1ccc(C2C(C#N)=C(N)N(c3sc4c(c3C#N)CCCC4)C3=C2C(=O)CC(C)(C)C3)cc1", "note": "(stereo not drawn)", "hERG current change (%, negative = inhibition) at 10uM": -2.99},
      {"molecule": "COc1nc2c(c(-c3cc(Br)cs3)c1C#N)Cc1ccccc1-2", "hERG current change (%, negative = inhibition) at 10uM": 22.5},
      {"molecule": "Cc1ccc(C)c2[nH]c(=O)c(CN(Cc3cccnc3)C(=S)NCc3ccco3)cc12", "hERG current change (%, negative = inhibition) at 10uM": -61.1},
      {"molecule": "CN(Cc1c(F)cccc1Cl)C(=O)CNC(=O)c1sc2ccccc2c1Cl", "hERG current change (%, negative = inhibition) at 10uM": 3.12},
      {"molecule": "O=C(COC(=O)C1CC(O)CN1S(=O)(=O)c1ccc(Cl)cc1)c1cccc(Cl)c1", "note": "(stereo not drawn)", "hERG current change (%, negative = inhibition) at 10uM": 2.97},
      {"molecule": "COc1ccc(/C=C/C(=O)N/C(=C\\c2ccco2)C(=O)NCCc2nc3ccccc3[nH]2)cc1", "hERG current change (%, negative = inhibition) at 10uM": -72.7},
      {"molecule": "O=C(CC1C(=O)NCCN1Cc1ccc(-c2ccccc2)cc1)NCCCn1ccnc1", "note": "(stereo not drawn)", "hERG current change (%, negative = inhibition) at 10uM": 14},
      {"molecule": "COc1ccc(/C=N/Nc2nc(-c3ccc(Cl)cc3)cc(C(F)(F)F)n2)cc1OC", "hERG current change (%, negative = inhibition) at 10uM": 2.99},
      {"molecule": "COC(=O)C1=C(c2ccc(S(C)(=O)=O)cc2)C[C@@H]2CC[C@H]1N2C(=O)N1CCOCC1", "hERG current change (%, negative = inhibition) at 10uM": 9.27},
      {"molecule": "CC(C)(C)N1C(=O)[C@H]2[C@@H](c3ccc(Br)cc3)N3C(=O)N(c4cccc(F)c4)C(=O)[C@@]3(C)[C@H]2C1=O", "hERG current change (%, negative = inhibition) at 10uM": 8.15},
      {"molecule": "CC(OC(=O)c1ccccc1N1C(=O)C2C3CCC(C3)C2C1=O)C(=O)c1ccccc1", "note": "(stereo not drawn)", "hERG current change (%, negative = inhibition) at 10uM": 7.12},
      {"molecule": "Cc1ccc(CONC(=O)c2ccc(Cl)cc2)cc1", "hERG current change (%, negative = inhibition) at 10uM": -1.6},
      {"molecule": "CCCn1c(N)c(C(=O)CSc2nc3ncc(Cl)cc3[nH]2)c(=O)[nH]c1=O", "hERG current change (%, negative = inhibition) at 10uM": 9.39},
      {"molecule": "COc1cc(CCC(=O)N2CCN(c3ccccc3)CC2)cc(OC)c1OC", "hERG current change (%, negative = inhibition) at 10uM": -58.5},
      {"molecule": "C#CCOCCOCCOCCNc1nc(N2CCOCC2)nc(N2CCN(C(=O)[C@H](CCC(=O)O)n3cc(C(N)Cc4ccc(O)cc4)nn3)CC2)n1.Cl", "note": "(stereo partly drawn)", "hERG current change (%, negative = inhibition) at 10uM": -13.9},
      {"molecule": "COc1ccc(OC)c(/C=N/NC(=O)c2cc[n+](CC(=O)c3ccccc3)cc2)c1.[Br-]", "hERG current change (%, negative = inhibition) at 10uM": -5.33},
      {"molecule": "O=C1/C(=C/c2ccc(F)cc2)SC(=S)N1NS(=O)(=O)c1ccccc1", "hERG current change (%, negative = inhibition) at 10uM": 9.56},
      {"molecule": "CCNS(=O)(=O)c1ccc(NC(=O)c2cc(C(F)(F)F)nn2C)cc1", "hERG current change (%, negative = inhibition) at 10uM": -16.6},
      {"molecule": "O=C(O)CCCCCNCc1c(Cl)cccc1Cl", "hERG current change (%, negative = inhibition) at 10uM": 2.91},
      {"molecule": "COC(=O)C1=C(C)N(C)C(=O)NC1c1ccc(O)c(Cl)c1", "note": "(stereo not drawn)", "hERG current change (%, negative = inhibition) at 10uM": -19.2},
      {"molecule": "CCCn1c(SCC(=O)NCCc2ccccc2)nnc1-c1ccccn1", "hERG current change (%, negative = inhibition) at 10uM": -38},
      {"molecule": "CCOC(=O)C1(CC2CCCCO2)CCN(C(=O)Nc2ccccc2)CC1", "note": "(stereo not drawn)", "hERG current change (%, negative = inhibition) at 10uM": 12},
      {"molecule": "Cc1ccccc1OC(=O)Cn1c(C(F)(F)F)nc2ccccc21", "hERG current change (%, negative = inhibition) at 10uM": 3.95},
      {"molecule": "O=C(Cn1ncc(N2CCCC2)c(Br)c1=O)c1ccc(Cl)cc1", "hERG current change (%, negative = inhibition) at 10uM": -23.1},
      {"molecule": "CCCc1cc(=O)[nH]c(Nc2ccc(O)cc2)n1", "hERG current change (%, negative = inhibition) at 10uM": 1.84},
      {"molecule": "O=C(Nn1cnnc1)c1ccc(Cl)c([N+](=O)[O-])c1", "hERG current change (%, negative = inhibition) at 10uM": 1.32},
      {"molecule": "Cc1cccc(NS(=O)(=O)c2cc(C(=O)N3CCN(C)CC3)ccc2C)c1", "hERG current change (%, negative = inhibition) at 10uM": -12.1},
      {"molecule": "CCCCc1ccc(NC(=O)NCc2cccnc2)cc1", "hERG current change (%, negative = inhibition) at 10uM": -41.4},
      {"molecule": "CN(CC(=O)O)S(=O)(=O)c1ccc2[nH]c(=O)c(=O)[nH]c2c1", "hERG current change (%, negative = inhibition) at 10uM": -0.277},
      {"molecule": "O=C(Nc1ccc2oc(-c3ccccc3)nc2c1)C1CCCO1", "note": "(stereo not drawn)", "hERG current change (%, negative = inhibition) at 10uM": 4.31},
      {"molecule": "O=C(NCC(=O)N(Cc1ccco1)C(C(=O)NC1CCCC1)c1ccncc1)c1cccs1", "note": "(stereo not drawn)", "hERG current change (%, negative = inhibition) at 10uM": -0.29},
      {"molecule": "COc1ccc(NC(=O)Cc2nnc(N)s2)cc1", "hERG current change (%, negative = inhibition) at 10uM": 18.5},
      {"molecule": "Cc1nn(C(C)C(=O)NCC2CCCO2)c(=O)c2cc3occc3n12", "note": "(stereo not drawn)", "hERG current change (%, negative = inhibition) at 10uM": -9.93},
      {"molecule": "Nc1ncnc(N2CCc3ccccc32)c1[N+](=O)[O-]", "hERG current change (%, negative = inhibition) at 10uM": 6.2},
      {"molecule": "COc1cccc(C(=O)OC(C)C(=O)NCC2CCCCC2)c1", "note": "(stereo not drawn)", "hERG current change (%, negative = inhibition) at 10uM": -29.3},
      {"molecule": "COc1ccc(-c2cc(C(=O)N3CC4(C)CC3CC(C)(C)C4)no2)cc1", "note": "(stereo not drawn)", "hERG current change (%, negative = inhibition) at 10uM": 15.8},
      {"molecule": "CC(=O)CSc1nc2c(c(=O)[nH]c(=O)n2C)n1Cc1cccc(Br)c1", "hERG current change (%, negative = inhibition) at 10uM": -24.6},
      {"molecule": "COC(=O)c1c(C)nc(C)c(C(=O)OC)c1-c1ccsc1", "hERG current change (%, negative = inhibition) at 10uM": 0.663},
      {"molecule": "COc1ccc(Cc2noc(COc3ccc(Cl)cc3)n2)cc1", "hERG current change (%, negative = inhibition) at 10uM": 5.95},
      {"molecule": "O=[N+]([O-])c1ccc(-c2csc3[n+]2CCS3)cc1.[Br-]", "hERG current change (%, negative = inhibition) at 10uM": -11.9}
    ]}
  ]
}
